± gives the standard error. Variants at the background level are over-represented here.
B1: glmS ribozyme (parent)
chain: AUAAAAGCGCCAGAACUACAGAAAUGUAGUUGACGAGGAGGAGGUUUAUCGAAUUUUCGGCGGAUGCCUCCAAA

What was measured:
Conditions in all cases: with glucosamine-6-phosphate
[1] = variants of: B1; assay: self-cleavage kobs at 40 uM GlcN6P; higher = faster cleavage; RNA array
Method in brief: (§1)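 Glucosamine-6-phosphate in HEPES/KCl/Mg(OAc)2 buffer, at 40 μM to 10 mM, was flowed over barcoded ribozyme variants transcribed in situ by E. coli RNA polymerase on sequenced MiSeq chips. Tracking was through a hybridised Cy3 probe at 37 °C. kobs, kcat and KM came from exponential decay fits and weighted Michaelis–Menten fits of normalised per-tile medians.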

[2] = variants of: B1; assay: self-cleavage kobs at 10000 uM GlcN6P; higher = faster cleavage; RNA array
Method in brief: as §1

[3] = variants of: B1; assay: self-cleavage kobs at 640 uM GlcN6P; higher = faster cleavage; RNA array
Method in brief: as §1

[4] = variants of: B1; assay: self-cleavage kobs at 160 uM GlcN6P; higher = faster cleavage; RNA array
Method in brief: as §1

[5] = variants of: B1; assay: self-cleavage kobs at 2500 uM GlcN6P; higher = faster cleavage; RNA array
Method in brief: as §1

Variant	self-cleavage kobs at 40 uM GlcN6P [1] [s⁻¹]	self-cleavage kobs at 10000 uM GlcN6P [2] [s⁻¹]	self-cleavage kobs at 640 uM GlcN6P [3] [s⁻¹]	self-cleavage kobs at 160 uM GlcN6P [4] [s⁻¹]	self-cleavage kobs at 2500 uM GlcN6P [5] [s⁻¹]
U47G A52G U69C	6.7e-05 ± 2.4e-05	9.36e-05 ± 1.5e-05			
U54G	0.00117 ± 3.8e-05				
U54C	0.00101 ± 1.9e-05	0.051 ± 0.0026	0.0121 ± 0.0007	0.00345 ± 0.00027	0.0274 ± 0.0017
C10G G29C A52C			< 1e-05		
G7A A14G A33G A53G			< 1e-05	< 1e-05	< 1e-05
U49G A53U G63A	< 1e-05	< 1e-05			
A6G A36G U56A			< 1e-05	< 1e-05	< 1e-05
U56C G60C	< 1e-05		< 1e-05	< 1e-05	< 1e-05
C10U A33G G44A			< 1e-05	< 1e-05	< 1e-05
C8G G40U G51A			< 1e-05		< 1e-05
U55A C71U	0.00109 ± 0.00019	0.0549 ± 0.013	0.0121 ± 0.0034	0.00212 ± 0.00076	0.00755 ± 0.0025
G62U C71U	< 1e-05	< 1e-05		< 1e-05	
G9A C68A U69C			< 1e-05		
U47C G51A C71A	< 1e-05	< 1e-05			
A6G G35A U56G G66A			< 1e-05	< 1e-05	< 1e-05
G9A U65G C71G			< 1e-05	< 1e-05	< 1e-05
G60U C61A	< 1e-05	< 1e-05		< 1e-05	< 1e-05
U47A C58A C71G	< 1e-05				
G9U U30G G32U U55A C67G		< 1e-05	< 1e-05		< 1e-05
C10G G32U A39G G59C A64U C70A			< 1e-05		< 1e-05
G51U C71A	< 1e-05				
C8A G32C A48C			< 1e-05		< 1e-05
G9U U30C A36U			< 1e-05		< 1e-05
G9A G35U C71A			< 1e-05		< 1e-05

Variant	self-cleavage kobs at 40 uM GlcN6P [1] [s⁻¹]	self-cleavage kobs at 10000 uM GlcN6P [2] [s⁻¹]	self-cleavage kobs at 640 uM GlcN6P [3] [s⁻¹]	self-cleavage kobs at 160 uM GlcN6P [4] [s⁻¹]	self-cleavage kobs at 2500 uM GlcN6P [5] [s⁻¹]
U2C G32U G44A U47G			< 1e-05		< 1e-05
C10U G38U U57G C61G G66U			0.000307 ± 9.3e-05		
C8A G13A C61U G62C C70A			< 1e-05		< 1e-05
G9U G40U G41U C70G			< 1e-05		
U49A U57A	< 1e-05	< 1e-05	< 1e-05	< 1e-05	
A6U G7A C16A G43U			< 1e-05	< 1e-05	
G7U C11U G40U			< 1e-05		< 1e-05
U45A U65C	9.95e-05 ± 1.1e-05	0.00374 ± 0.00047	0.000994 ± 0.00014	0.000318 ± 6.3e-05	0.00204 ± 0.00054
G7C A14U C16G U30A U56A C67G			< 1e-05	< 1e-05	
G9A G59A			< 1e-05		
C11A A14G A64C			< 1e-05		
G9A C61G G63U U65G C70A			< 1e-05		< 1e-05
G7U G43A G51U		< 1e-05	< 1e-05		
A6G G63C		< 1e-05	< 1e-05	< 1e-05	< 1e-05
C8U G13A U46A G51C G59A			< 1e-05		
A6U G62U A64G			< 1e-05		< 1e-05
C8G G13A U54A G62A			< 1e-05	< 1e-05	
A6C A12C G29U			< 1e-05		
G7U C61A			< 1e-05	< 1e-05	< 1e-05
G7C G13U A33U A39G G41A A48C A64C			< 1e-05		
C10G U30C C68G			9.65e-05 ± 3.5e-05		
G51C A52G	< 1e-05	< 1e-05		< 1e-05	< 1e-05
A64U G66C	< 1e-05				
G9A G32C		< 1e-05	< 1e-05	< 1e-05	

Variant	self-cleavage kobs at 40 uM GlcN6P [1] [s⁻¹]	self-cleavage kobs at 10000 uM GlcN6P [2] [s⁻¹]	self-cleavage kobs at 640 uM GlcN6P [3] [s⁻¹]	self-cleavage kobs at 160 uM GlcN6P [4] [s⁻¹]	self-cleavage kobs at 2500 uM GlcN6P [5] [s⁻¹]
C8U G63U U65C			< 1e-05		
G51U G59U	< 1e-05	< 1e-05	< 1e-05		
C10U G41C U65G			< 1e-05		< 1e-05
C10A C11A A14C C61G		< 1e-05	< 1e-05		
G7C G40C C50U			< 1e-05		
U49C G66A	< 1e-05				
U2C G43U C50U G51A			< 1e-05		< 1e-05
G60C U65A	< 1e-05	< 1e-05			
U57C U65A	< 1e-05				
A6U G38A G66A			< 1e-05		< 1e-05
A6C C16A G38A A48C			< 1e-05		< 1e-05
A6U G9C A12C A14U			< 1e-05		< 1e-05
U56C C58G	< 1e-05				
A6G G9U C58A			< 1e-05		
C8A G41A G44U U47G C68U			< 1e-05		< 1e-05
G63C C68U	< 1e-05	< 1e-05			
A6C A15C G32C A33C C61A C68U			< 1e-05	< 1e-05	
A6C C50U A52G			< 1e-05		
C8G U56G C68G			< 1e-05		
A6G C16U U30C A42C C68U			< 1e-05		
G60U G62C	< 1e-05				
U47A G59U	< 1e-05			< 1e-05	
G7C G60A			< 1e-05	< 1e-05	< 1e-05
G60U	< 1e-05		< 1e-05	< 1e-05	

Variant	self-cleavage kobs at 40 uM GlcN6P [1] [s⁻¹]	self-cleavage kobs at 10000 uM GlcN6P [2] [s⁻¹]	self-cleavage kobs at 640 uM GlcN6P [3] [s⁻¹]	self-cleavage kobs at 160 uM GlcN6P [4] [s⁻¹]	self-cleavage kobs at 2500 uM GlcN6P [5] [s⁻¹]
U45G A64G	0.000169 ± 2.8e-05	0.00759 ± 0.002	0.00161 ± 0.0003	0.000411 ± 0.00011	0.00451 ± 0.00092
C10G A42C C71U			< 1e-05		< 1e-05
U56A C70U C71U	5.46e-05 ± 1.5e-05	8.85e-05 ± 1.7e-05	8.84e-05 ± 1.7e-05		0.000232 ± 5.2e-05
U45A U54G	0.00129 ± 0.00023				
C10G C11A C16A C58G C71G			0.00176 ± 0.00062		0.000241 ± 0.0001
U55A C67A	0.000444 ± 0.00015	0.00563 ± 0.0018	0.00115 ± 0.00052		
U46A G51A C58U G62U C70U	< 1e-05				
U54C C68A	< 1e-05				
C8G C34G G59U			< 1e-05		
G9A A48C G62U			< 1e-05		< 1e-05
A6U A33U U45A C71G			< 1e-05		
U56A C58U	< 1e-05				
C8U A12U G51U			< 1e-05		< 1e-05
C8U A33G A42U			< 1e-05		
G59U G62U	< 1e-05	< 1e-05			< 1e-05
G7A G40U G43C U54G G66A			< 1e-05		< 1e-05
G9A G37U U54G			< 1e-05		< 1e-05
C10G A33C G59C			< 1e-05		
C8A A39G C61U			< 1e-05	< 1e-05	
U46A C70A	< 1e-05				
A6G A14C A33C			< 1e-05		< 1e-05
G63C A64U	< 1e-05		< 1e-05		< 1e-05
C10G G44C			< 1e-05		< 1e-05
A6G A39U C68G			< 1e-05		< 1e-05

Variant	self-cleavage kobs at 40 uM GlcN6P [1] [s⁻¹]	self-cleavage kobs at 10000 uM GlcN6P [2] [s⁻¹]	self-cleavage kobs at 640 uM GlcN6P [3] [s⁻¹]	self-cleavage kobs at 160 uM GlcN6P [4] [s⁻¹]	self-cleavage kobs at 2500 uM GlcN6P [5] [s⁻¹]
C8U C10G A14G G59A			< 1e-05	< 1e-05	
C8A A12U U56G G66A			< 1e-05		
G9U A12U A33C G37C A64C			< 1e-05		< 1e-05
U47A A64U	< 1e-05		< 1e-05		
G7U C16U A36G G51U C58G			< 1e-05	< 1e-05	
A6G C10U G13U A48G U54A U57C U69C			< 1e-05		
G9U A42G U55A			< 1e-05		< 1e-05
C8U U31G G35U G44A C70U			< 1e-05		< 1e-05
C10U U31A G43C C50G			< 1e-05		
G7A A48U A53U U65A			< 1e-05	< 1e-05	
G62U C70A	< 1e-05				
U49A G51A	< 1e-05				
A48G A53U	< 1e-05				
A52U U65G G66C	< 1e-05				
G7A C8U A15U			< 1e-05		< 1e-05
U45A U55C	0.000654 ± 0.00021	0.024 ± 0.0085	0.00526 ± 0.0015		0.00714 ± 0.0029
C8U A39G G59U			< 1e-05		< 1e-05
C10U G41A U65G			< 1e-05	< 1e-05	< 1e-05
A6C A53U C58U			< 1e-05		< 1e-05
C8A C11U A33C A39C G41C			< 1e-05		< 1e-05
G7C G41C G51C			< 1e-05		
C11A G29A C34A U57C			< 1e-05	< 1e-05	

Source: the supplement of paper PMC7125110
